Our source for the binding signal values is article PMC7819943, “Rice protein-binding microarrays: a tool to detect cis-acting elements near promoter regions in rice”.

This is one part of the list.

The experiment has as its target T1, OsWOX13 (Oryza sativa, UniProt Q5QMM3 1-267).
T1 sequence: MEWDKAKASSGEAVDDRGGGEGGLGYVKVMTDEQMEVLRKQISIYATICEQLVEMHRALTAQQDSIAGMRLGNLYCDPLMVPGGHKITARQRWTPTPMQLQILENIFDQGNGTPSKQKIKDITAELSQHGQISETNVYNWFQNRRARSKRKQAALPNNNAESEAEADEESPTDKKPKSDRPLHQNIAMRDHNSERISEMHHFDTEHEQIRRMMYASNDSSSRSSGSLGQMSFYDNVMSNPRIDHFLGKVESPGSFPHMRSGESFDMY
Nature of the experiment: protein-binding microarray (RPBM); PBS, 2% BSA, 51.3 ng/ul salmon testes DNA, 50 uM zinc acetate, 200 nM TF, 25 C, 1 h; high values mean tight binding. The following applies: protein: recombinant; tags: N-terminal polyhistidine and DsRed monomer fusion (pET32a); label: CyDye5-dUTP incorporated in the synthesized complementary strand; 3' TTTTT single-stranded linker to array surface; dsDNA, one strand shown. A digest of the protocol: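 Binding signal here means per-feature fluorescence intensity in arbitrary units. The values were read on an Axon 4000B scanner after a custom Agilent array, double-stranded by primer extension with Cy5-dUTP, was incubated with 200 nM protein at 25 °C for 1 h in PBS with 2% BSA, salmon testes DNA and 50 µM zinc acetate, then washed. The proteins were transcription factors with an N-terminal polyhistidine tag and DsRed, expressed in E. coli BL21-CodonPlus and purified on Ni–NTA.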
In the case of “GTAGATTGACTGCGGACAACAAAGCTGAGTCAGCGTGGGACGGAGTCACCTAGTGCAG”, the binding signal was 50000 fluorescence intensity (a.u.).
For “GGAGCGGGACTGATTGCGGATGCATTTGCAGAAGATTGGTCGGAGTCACCTAGTGCAG” the value was 8060 fluorescence intensity (a.u.).
For “ATGTGACTGAAAAGTTGTGTGTGTATGACAGGTTGATGTGCGGAGTCACCTAGTGCAG” the value was 12400 fluorescence intensity (a.u.); for “TGGGAATTGGGAGCAGTGACGTGCTCCATGCATGCATATGCGGAGTCACCTAGTGCAG”, 6400 fluorescence intensity (a.u.); for “TCATTTGATTTATTGTTAAATATACTTTTATGTATACATACGGAGTCACCTAGTGCAG”, 27500 fluorescence intensity (a.u.).
For “GATGACGAACTAGATTTGGTGAACAATTAAGGGTGTCTAACGGAGTCACCTAGTGCAG” the value was 10100 fluorescence intensity (a.u.).
As for “TTATAACACAAATAATATAATAGATATATAGACTGTTGTCCGGAGTCACCTAGTGCAG”, the binding signal was 3650 fluorescence intensity (a.u.).
Then “ATGAAATAATTGCAAGGCGTCTTGCAGACAGTGGGCAGTCCGGAGTCACCTAGTGCAG”, with 7400 fluorescence intensity (a.u.); and “ATAATTCAAATTCAAATTTGAATCGGGGATGTAAACTTTTCGGAGTCACCTAGTGCAG”, with 4020 fluorescence intensity (a.u.); and “TTTACTTCAATTCTATTCAATTGAAATTAGCAACTTGCCGCGGAGTCACCTAGTGCAG”, with 3300 fluorescence intensity (a.u.).
Then “ATTAACTATAAATAATTTAAATAAATAATTTGAAGCTAGCCGGAGTCACCTAGTGCAG”, with 28000 fluorescence intensity (a.u.); and “ATAATAGGTTAATGATAGTATATTGGTGTTTTAAAAGCTACGGAGTCACCTAGTGCAG”, with 5080 fluorescence intensity (a.u.); and “ATACTAATCATAAAATAAATTTATATAAGATGAACGGTCACGGAGTCACCTAGTGCAG”, with 16200 fluorescence intensity (a.u.).
Then “GCATGATTGCATTAATTTGGTCCATTAGTCGCAACTGCCACGGAGTCACCTAGTGCAG”, with 50100 fluorescence intensity (a.u.); and “ACTTACTATTTATCACTTTGACAGTGACTCTTTTGTATATCGGAGTCACCTAGTGCAG”, with 3260 fluorescence intensity (a.u.).
In the case of “TCCATTAACATTTGCCATTATCGTACTGACTTTCGTACGACGGAGTCACCTAGTGCAG”, the binding signal was 3710 fluorescence intensity (a.u.).
Then “TTGATTGGGTGTTTAATCGGGTATAGTCAGGTGTCTGCCTCGGAGTCACCTAGTGCAG”, with 51400 fluorescence intensity (a.u.); and “CTTATAAATTGACTCAAATACGGATATATATTTTCAAAAGCGGAGTCACCTAGTGCAG”, with 15900 fluorescence intensity (a.u.); and “GTTGAGATTAATTGTTCTATACTACTTTCTCTATCTAAAACGGAGTCACCTAGTGCAG”, with 7990 fluorescence intensity (a.u.).
Take “GACGAAAATGATTGGTAAAAGTATGGGCAACCTTCTCCCTCGGAGTCACCTAGTGCAG”: the binding signal was 35400 fluorescence intensity (a.u.).
Then “TTTAATTTGTAAACGTGCAATACCACATGTTGTATTGGTCCGGAGTCACCTAGTGCAG”, with 40900 fluorescence intensity (a.u.).
For “GATAGAGACTAATTTTAATCAACCATCCATGACGTGTTAACGGAGTCACCTAGTGCAG” the value was 8770 fluorescence intensity (a.u.); for “CTTTAATTTCAATCTATGTACTTAATAATATAGGAATACTCGGAGTCACCTAGTGCAG”, 32000 fluorescence intensity (a.u.); for “AGTTCAGATTGAAAATTTTGAAAACTTTCAATTTGAGATTCGGAGTCACCTAGTGCAG”, 28600 fluorescence intensity (a.u.).
For “TTAAAATTTTCAATTATTCTTTTAAAACTTTTAACTAAATCGGAGTCACCTAGTGCAG” the value was 4750 fluorescence intensity (a.u.).
Regarding “GGGTCTATTTCAAATCATCATGTAACATCGGAATTCAAGTCGGAGTCACCTAGTGCAG”, the binding signal was 5260 fluorescence intensity (a.u.).
Then “TATAAAATCATGAGCTGTAATTAGGGTTCCGATCATCTCACGGAGTCACCTAGTGCAG”, with 12300 fluorescence intensity (a.u.); and “ATCAAATCATATCCAATCCTTTGAAATTCCTATGGAATGGCGGAGTCACCTAGTGCAG”, with 4340 fluorescence intensity (a.u.); and “CAAAATCAATTTCTATAACTTGTCGAGGAAATCGATCGTTCGGAGTCACCTAGTGCAG”, with 5880 fluorescence intensity (a.u.).
For “AAACAGATAGACACAAACATTTCCAGCTTTTCAGTTCCTGCGGAGTCACCTAGTGCAG” the value was 8890 fluorescence intensity (a.u.).
Then “ATTGATTGTAGCCAAAATAAATTTTACTAAATTTTGCCAACGGAGTCACCTAGTGCAG”, with 32500 fluorescence intensity (a.u.); and “AAGAAGATGATAATTGTGGTGGAGAGAAATAGGGCAATCTCGGAGTCACCTAGTGCAG”, with 4070 fluorescence intensity (a.u.); and “CATACTATTTAAATTTAAATTATCATAAATCATATTAATTCGGAGTCACCTAGTGCAG”, with 21800 fluorescence intensity (a.u.).
Consider “ATAAGATTGCTGACGAGAGTTTAAACGTTGTCGAACTAAGCGGAGTCACCTAGTGCAG”, for which the binding signal was 7210 fluorescence intensity (a.u.).
Then “GCCACCATTAATTGCGAGCTGCTTCTTCTTCCCGTTCTTGCGGAGTCACCTAGTGCAG”, with 12000 fluorescence intensity (a.u.).
For “TATAGATAGACATATAGATATGGATATAGACATAGTAATACGGAGTCACCTAGTGCAG” the value was 3770 fluorescence intensity (a.u.); for “AGATTACATGATTGGAAATCTTTCACATATTTGTTTCAGGCGGAGTCACCTAGTGCAG”, 51800 fluorescence intensity (a.u.).
For the sequence “TCTTAAGATTGAAATGTTACTACTAGAAAATGGGCTCTCTCGGAGTCACCTAGTGCAG”, the binding signal is 9660 fluorescence intensity (a.u.).
Then “GCCAAAATTTAACTAAAATCCCACCCTATACACTGTACGGCGGAGTCACCTAGTGCAG”, with 3170 fluorescence intensity (a.u.); and “GCCTTGATGAGTCACTGCATGACGGGGACCTCGCCGATGGCGGAGTCACCTAGTGCAG”, with 6420 fluorescence intensity (a.u.); and “ATAATTAAATATATTTAGATGCAGGAAATTTACAATCATCCGGAGTCACCTAGTGCAG”, with 24500 fluorescence intensity (a.u.).
For “TGTAAACTGTGACAAGTGTCTCTTTGAAAGACTAATACATCGGAGTCACCTAGTGCAG” the value was 3270 fluorescence intensity (a.u.).
